Structures can show the parent of a compound that is named as a salt. This is one part of the list. Cut-off read from the data, not from the text of the source: active = -2 or less and inactive = the rest. Single values are uncertain, as repeats are few or missing.
test system: hPSC-derived cortical neurons (WA09); assay: nuclei number (viability) z-score; higher = more surviving cells; settings: 5 µM; treatment: days 7-14 after plating, readout day 21
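Note: nuclei counted from DAPI counterstain by automated high-content image analysis, four fields per well at ×20 in 384-well plates, with sequential b-score then z-score normalization.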

Row | Compound | nuclei number (z-score)
1 | Cc1ncc(CCCN(C)C)cc1Nc1ncc2c(n1)-c1ccc(C(F)(F)F)cc1NC(=S)C2 | inactive: -1.02
2 | Oc1ccc(/C=C/c2cc(O)cc(O)c2)cc1 [Resveratrol] | inactive: 0.00317
3 | CCN(CC)CCNC(=O)c1c(C)[nH]c(/C=C2\C(=O)Nc3ccc(F)cc32)c1C [Sunitinib Malate] | active: -2.75
4 | CCN(CC)CCNC(=O)c1c(C)[nH]c(/C=C2\C(=O)Nc3ccc(F)cc32)c1C [Sunitinib] | active: -3.01
5 | COc1ccc(/C=C/C(=O)Nc2ccccc2C(=O)O)cc1OC [Tranilast] | inactive: -0.785
6 | C=C1C(=O)[C@]23[C@H](O)[C@H]1CC[C@H]2[C@@]12CO[C@]3(O)[C@@H](O)[C@@H]1C(C)(C)CC[C@@H]2O [Oridonin] | inactive: -1.35
7 | CCOc1cc2ncc(C#N)c(Nc3ccc(F)c(Cl)c3)c2cc1NC(=O)/C=C/CN(C)C [Pelitinib (EKB-569)] | active: -3.62
8 | Oc1c(Cl)cc(Cl)c(Cl)c1Cc1c(O)c(Cl)cc(Cl)c1Cl [Hexachlorophene] | inactive: -0.145
9 | Cc1c(N(C)C)c(=O)n(-c2ccccc2)n1C [Amidopyrine] | inactive: 0.0194
10 | Cc1cc(/C=C/C#N)cc(C)c1Nc1ccnc(Nc2ccc(C#N)cc2)n1 [Rilpivirine] | inactive: 0.662
11 | CC(=O)[C@H]1CC[C@H]2[C@@H]3C=CC4=CC(=O)CC[C@@]4(C)[C@@H]3CC[C@]12C [Dydrogesterone] | inactive: 1.07
12 | O=S(=O)(NCCSSCCNS(=O)(=O)c1cc(Cl)ccc1Cl)c1cc(Cl)ccc1Cl | inactive: 0.269
13 | Cc1cc(=O)[nH]c(=S)[nH]1 [Methylthiouracil] | inactive: -0.0908
14 | COc1ccccc1OCC(O)CO (configuration not stated) [Guaifenesin] | inactive: 0.098
15 | Nc1nc(CC(=O)Nc2ccc(CCNC[C@H](O)c3ccccc3)cc2)cs1 [Mirabegron] | inactive: 1.11
16 | NC[C@@H]1O[C@H](O[C@H]2[C@@H](O)[C@H](O[C@@H]3[C@@H](O)[C@H](N)C[C@H](N)[C@H]3O[C@H]3O[C@H](CO)[C@@H](O)[C@H](O)[C@H]3N)O[C@@H]2CO)[C@H](N)[C@@H](O)[C@@H]1O [Paromomycin Sulfate] | inactive: -0.069
17 | CC[C@]1(O)C[C@H]2CN(CCc3c([nH]c4ccccc34)[C@@](C(=O)OC)(c3cc4c(cc3OC)N(C=O)[C@H]3[C@@](O)(C(=O)OC)[C@H](OC(C)=O)[C@]5(CC)C=CCN6CC[C@]43[C@@H]65)C2)C1 [Vincristine] | active: -2.43
18 | Cc1cccc(C)c1OCC(C)N (configuration not stated) [Mexiletine HCl] | inactive: 0.216
19 | CN[C@@H](C)C(=O)N[C@H]1CN(C(=O)CC(C)C)CC[C@H]2CC[C@@H](C(=O)NC(c3ccccc3)c3ccccc3)N2C1=O | inactive: -0.0994
20 | CN1[C@@H]2CC[C@H]1C[C@@H](OC(=O)c1c[nH]c3ccccc13)C2 [Tropisetron] | inactive: 0.397
21 | NC(=O)c1cn(Cc2c(F)cccc2F)nn1 [Rufinamide] | inactive: 0.982

Row | Compound | nuclei number (z-score)
22 | Cc1cc(O)c2c(c1)C(=O)c1cccc(O)c1C2=O [Chrysophanic Acid] | inactive: -0.0867
23 | CC(C(=O)O)c1ccc(-c2ccccc2)c(F)c1 (configuration not stated) [Flurbiprofen] | inactive: -1.17
24 | O=C(OCC(O)CO)c1ccccc1Nc1ccnc2cc(Cl)ccc12 (configuration not stated) [Glafenine HCl] | inactive: 0.372
25 | Cc1c(OCC(F)(F)F)ccnc1C[S@@+]([O-])c1nc2ccccc2[nH]1 [Dexlansoprazole] | inactive: 0.126
26 | CC[C@H]1OC(=O)[C@H](C)[C@@H](O[C@H]2C[C@@](C)(OC)[C@@H](O)[C@H](C)O2)[C@H](C)[C@@H](O[C@@H]2O[C@H](C)C[C@H](N(C)C)[C@H]2O)[C@](C)(O)C[C@@H](C)C(=O)[C@H](C)[C@H]2OC(=O)O[C@@]21C [Erythromycin Cyclocarbonate] | inactive: 2.69
27 | C[C@H]1O[C@@H](O[C@H]2[C@@H](O)C[C@H](O[C@H]3[C@@H](O)C[C@H](O[C@H]4CC[C@@]5(C)[C@H](CC[C@@H]6[C@@H]5C[C@@H](O)[C@]5(C)[C@@H](C7=CC(=O)OC7)CC[C@]65O)C4)O[C@@H]3C)O[C@@H]2C)C[C@H](O)[C@@H]1O [Digoxin] | active: -4.17
28 | O=C(Nc1cccc(C(F)(F)F)c1)Nc1cc(S(=O)(=O)NC2CC2)ccc1-c1ccsc1 | inactive: 0.948
29 | O=C1c2c(O)cccc2C([C@@H]2O[C@H](CO)[C@@H](O)[C@H](O)[C@H]2O)c2cc(CO)cc(O)c21 (some centres not stated) [Aloin] | inactive: -0.244
30 | CC(NC(=O)C(Cc1ccccc1)NC(=O)OCc1ccccc1)C(=O)CF (configuration not stated) | inactive: 1.27
31 | C=CCc1cccc(/C=N/NC(=O)CN2CCN(Cc3ccccc3)CC2)c1O | active: -5.45
32 | CO/N=C(\C(=O)N[C@@H]1C(=O)N2C(C(=O)O)=C(CSc3nnnn3C)CS[C@H]12)c1csc(N)n1 [Cefmenoxime hydrochloride] | inactive: 1.23
33 | CC(C(=O)O)c1ccc2c(c1)[nH]c1ccc(Cl)cc12 (configuration not stated) [Carprofen] | inactive: 0.355
34 | CN(C)C(=O)C(CCN1CCC(O)(c2ccc(Cl)cc2)CC1)(c1ccccc1)c1ccccc1 [Loperamide HCl] | inactive: -0.402
35 | CC(=O)C1C(=O)C=C(C)OC1=O (configuration not stated) [Dehydroacetic acid] | inactive: -0.182
36 | Cc1ccccc1C(=O)Nc1ccc(C(=O)N2CCCC(O)c3cc(Cl)ccc32)c(C)c1 (configuration not stated) [Tolvaptan] | inactive: 7.23
37 | Nc1nc(-c2nn(Cc3ccccc3F)c3ncccc23)ncc1C1CC1 | inactive: 0.502
38 | CC1(C)O[C@H]2CC(=O)OC[C@]23[C@H]2CC[C@@]4(C)[C@H](c5ccoc5)OC(=O)[C@H]5O[C@]54[C@]2(C)C(=O)C[C@@H]13 [Limonin] | inactive: 3.17
39 | CN[C@@H]1[C@@H](O[C@H]2O[C@H](CO)[C@@H](N)[C@H](O)[C@H]2O)OC2C[C@@H](N)[C@@H](O[C@H]3[C@H](O)[C@@H](O)[C@H](N)C[C@@H]3N)OC2[C@@H]1O (some centres not stated) [Apramycin Sulfate] | inactive: -0.748
40 | CC12CCC(CC1=O)C2(C)C (stereo not drawn) [(+)-Camphor] | inactive: 0.367
41 | C[C@@H]1NC(=O)[C@@H](N)CNC(=O)[C@H](C2CCNC(=N)N2)NC(=O)/C(=C/NC(N)=O)NC(=O)[C@H](CNC(=O)CC(N)CCCN)NC1=O.N=C1NCC[C@H]([C@@H]2NC(=O)/C(=C/NC(N)=O)NC(=O)[C@H](CNC(=O)C[C@@H](N)CCCN)NC(=O)[C@H](CO)NC(=O)[C@@H](N)CNC2=O)N1 [Capreomycin Sulfate] | inactive: -0.238
42 | CC/C(=C(\c1ccc(O)cc1)c1ccc(OCCN(C)C)cc1)c1ccccc1 [4-Hydroxytamoxifen] | inactive: -1.99

Row | Compound | nuclei number (z-score)
43 | CCN(CC)CCOC(=O)c1ccc(N)cc1Cl [Chloroprocaine HCl] | inactive: 2.9
44 | COc1ccc(O)cc1 [Mequinol] | inactive: 0.947
45 | CCCCCCOC(=O)NC(=N)c1ccc(NCc2nc3cc(C(=O)N(CCC(=O)OCC)c4ccccn4)ccc3n2C)cc1 [Dabigatran Etexilate] | inactive: 0.635
46 | Cc1c(-c2ccccc2)oc2c(C(=O)OCCN3CCCCC3)cccc2c1=O [Flavoxate HCl] | inactive: -0.417
47 | CC[C@@](C)(Nc1ccnc(-c2c[nH]c3ncccc23)n1)C(=O)NCC(F)(F)F [Decernotinib (VX-509)] | inactive: 0.987
48 | NC(=O)c1cnc(N[C@@H]2CCCC[C@@H]2N)nc1Nc1cccc(-n2nccn2)c1 | inactive: 0.206
49 | CN[C@@H]1[C@H](O)[C@H](NC)[C@H]2O[C@@]3(O)C(=O)C[C@@H](C)O[C@H]3O[C@@H]2[C@H]1O [Spectinomycin HCl] | inactive: 0.139
50 | O=C(/C=C/c1cncc(F)c1)c1c(-c2ccccc2)c2cc(Cl)ccc2[nH]c1=O | active: -6.65
51 | NS(=O)(=O)c1cc2c(cc1Cl)NC(C(Cl)Cl)NS2(=O)=O (configuration not stated) [Trichlormethiazide] | inactive: 0.073
52 | COC(=O)C1=CO[C@@H](O[C@@H]2O[C@H](CO)[C@@H](O)[C@H](O)[C@H]2O)[C@@H]2C(CO)=CC[C@H]12 [Geniposide] | inactive: -1.11
53 | C#Cc1cccc(Nc2ncnc3cc(OCCOC)c(OCCOC)cc23)c1 [Erlotinib HCl (OSI-744)] | inactive: 0.687
54 | C#Cc1cccc(Nc2ncnc3cc(OCCOC)c(OCCOC)cc23)c1 [Erlotinib] | inactive: 0.824
55 | COc1ccc(Cn2ccc3ccc(C(=O)NO)cc32)cc1 | inactive: 0.0273
56 | CC#CC(=O)N1CC[C@@H](n2c(=O)n(-c3ccc(Oc4ccccc4)cc3)c3c(N)ncnc32)C1 | inactive: -0.443
57 | Cc1onc(-c2ccccc2Cl)c1C(=O)N[C@@H]1C(=O)N2[C@@H]1SC(C)(C)[C@@H]2C(=O)O [Cloxacillin Sodium] | inactive: -0.705
58 | CN1CCC[C@@H]1Cc1c[nH]c2ccc(CCS(=O)(=O)c3ccccc3)cc12 [Eletriptan HBr] | inactive: -1.19
59 | COc1cc2c(Oc3ccc(NC(=O)C4(C(=O)Nc5ccc(F)cc5)CC4)cc3F)ccnc2cc1OCCCN1CCOCC1 | active: -2.72
60 | C[S+]([O-])c1ccc(-c2nc(-c3ccc(F)cc3)c(-c3ccncc3)[nH]2)cc1 (configuration not stated) | inactive: -0.0734
61 | COc1ccccc1Oc1c(NS(=O)(=O)c2ccc(C(C)(C)C)cc2)nc(-c2ncccn2)nc1OCCO [Bosentan] | inactive: -0.0096
62 | COc1ccccc1Oc1c(NS(=O)(=O)c2ccc(C(C)(C)C)cc2)nc(-c2ncccn2)nc1OCCO [Bosentan Hydrate] | inactive: 1.44

Reference: the supplement of paper PMC11348887
